Reference: the supplement of paper PMC10369915
The other results are listed elsewhere or left out. Rule as the data show it: active = 3.2 or more and inactive = the rest. Most of these values are background signal.
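Also: displayed peptides selected on beads carrying the immobilized SH2 domain, with library peptides lacking any tyrosine serving as negative controls.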

The binders below were run against SHP2 C-SH2 domain E139D (assay: enrichment score (SH2-bound / input frequency) (ratio); bacterial display of known human phosphotyrosine sites (pTyr-Var adds point mutants) read by sequencing; higher = stronger binding; tyrosines were phosphorylated by kinases first). Conditions: peptide library: pTyr-Var.
For KDKLPYPFDDP [GPX2_Y125_YF], the enrichment score was inactive: 0.719.
KLPYLYDDPFS [GPX2_Y127_P126L] was tested, and the enrichment score was inactive: 1.04.
EFAAGYNVKFD [GPX4_Y123] was tested, and the enrichment score was inactive: 0.728.
SVSVNYGDLVQ [GRAP_Y101_Q104L] was tested, and the enrichment score was inactive: 0.677.
LFPANYVAPMT [GRAP2_Y324] was tested, and the enrichment score was inactive: 1.04.
For FFPANYVAPMT [GRAP2_Y324_L319F], the enrichment score was inactive: 1.19.
With YGMQLYQNYMH [GRB14_Y347] the enrichment score was inactive: 2.47.
With YGMQLYQKYMH [GRB14_Y347_N349K] the enrichment score was inactive: 1.09.
FGMQLYQKFMH [GRB14_Y347_N349K_YF] was tested, and the enrichment score was active: 3.33.
In the case of FGMQLYQNFMH [GRB14_Y347_YF], the enrichment score is reported as active: 3.48.
In the case of EAIAKYDFKAT [GRB2_Y7], the enrichment score is reported as inactive: 0.869.
EAIAKYDLKAT [GRB2_Y7_F9L] was tested, and the enrichment score was inactive: 1.3.
For PLFSKYWPNHI [GREB1L_Y1560_R1558S_YF], the enrichment score was inactive: 0.767.
With PLFRKYWPNHI [GREB1L_Y1560_YF] the enrichment score was inactive: 0.694.
With QRVLLYVQRET [GRHL3_Y518_R520Q] the enrichment score was inactive: 2.33.
EGNERYEGYCV [GRIA3_Y451] was tested, and the enrichment score was inactive: 0.509.
In the case of EGNEQYEGYCV [GRIA3_Y451_R450Q], the enrichment score is reported as inactive: 0.511.
With EKMWSYTKSAE [GRIA3_Y705_M706T] the enrichment score was inactive: 0.86.

These binders were tested against SHP2 C-SH2 domain wild-type in the same assay as above. Conditions: peptide library: pTyr-Var.
With KDKLPYPFDDP [GPX2_Y125_YF] the enrichment score was inactive: 0.583.
In the case of KLPYLYDDPFS [GPX2_Y127_P126L], the enrichment score is reported as inactive: 0.958.
In the case of EFAAGYNVKFD [GPX4_Y123], the enrichment score is reported as inactive: 0.61.
SVSVNYGDLVQ [GRAP_Y101_Q104L] was tested, and the enrichment score was inactive: 0.817.
LFPANYVAPMT [GRAP2_Y324] was tested, and the enrichment score was inactive: 1.07.
In the case of FFPANYVAPMT [GRAP2_Y324_L319F], the enrichment score is reported as inactive: 1.02.
YGMQLYQNYMH [GRB14_Y347] was tested, and the enrichment score was inactive: 2.22.
With YGMQLYQKYMH [GRB14_Y347_N349K] the enrichment score was inactive: 0.877.
For FGMQLYQKFMH [GRB14_Y347_N349K_YF], the enrichment score was inactive: 3.01.
With FGMQLYQNFMH [GRB14_Y347_YF] the enrichment score was inactive: 2.95.
In the case of EAIAKYDFKAT [GRB2_Y7], the enrichment score is reported as inactive: 0.58.
With EAIAKYDLKAT [GRB2_Y7_F9L] the enrichment score was inactive: 0.984.
In the case of PLFSKYWPNHI [GREB1L_Y1560_R1558S_YF], the enrichment score is reported as inactive: 0.779.
PLFRKYWPNHI [GREB1L_Y1560_YF] was tested, and the enrichment score was inactive: 0.56.
With QRVLLYVQRET [GRHL3_Y518_R520Q] the enrichment score was inactive: 1.68.
With EGNERYEGYCV [GRIA3_Y451] the enrichment score was inactive: 0.494.
EGNEQYEGYCV [GRIA3_Y451_R450Q] was tested, and the enrichment score was inactive: 0.462.
EKMWSYTKSAE [GRIA3_Y705_M706T] was tested, and the enrichment score was inactive: 0.734.

Each binder was assayed against SHP2 N-SH2 domain L43F in the same assay as above. Conditions: peptide library: pTyr-Var.
For KDKLPYPFDDP [GPX2_Y125_YF], the enrichment score was inactive: 0.589.
KLPYLYDDPFS [GPX2_Y127_P126L] was tested, and the enrichment score was inactive: 1.19.
With EFAAGYNVKFD [GPX4_Y123] the enrichment score was inactive: 0.712.
SVSVNYGDLVQ [GRAP_Y101_Q104L] was tested, and the enrichment score was inactive: 0.678.
For LFPANYVAPMT [GRAP2_Y324], the enrichment score was inactive: 0.952.
FFPANYVAPMT [GRAP2_Y324_L319F] was tested, and the enrichment score was inactive: 1.44.
YGMQLYQNYMH [GRB14_Y347] was tested, and the enrichment score was inactive: 2.09.
YGMQLYQKYMH [GRB14_Y347_N349K] was tested, and the enrichment score was inactive: 0.985.
FGMQLYQKFMH [GRB14_Y347_N349K_YF] was tested, and the enrichment score was inactive: 3.04.
FGMQLYQNFMH [GRB14_Y347_YF] was tested, and the enrichment score was inactive: 2.85.
For EAIAKYDFKAT [GRB2_Y7], the enrichment score was inactive: 0.88.
For EAIAKYDLKAT [GRB2_Y7_F9L], the enrichment score was inactive: 1.06.
For PLFSKYWPNHI [GREB1L_Y1560_R1558S_YF], the enrichment score was inactive: 1.21.
For PLFRKYWPNHI [GREB1L_Y1560_YF], the enrichment score was inactive: 0.645.
In the case of QRVLLYVQRET [GRHL3_Y518_R520Q], the enrichment score is reported as inactive: 2.12.
With EGNERYEGYCV [GRIA3_Y451] the enrichment score was inactive: 0.476.
With EGNEQYEGYCV [GRIA3_Y451_R450Q] the enrichment score was inactive: 0.493.
For EKMWSYTKSAE [GRIA3_Y705_M706T], the enrichment score was inactive: 0.791.

Each binder was assayed against SHP2 N-SH2 domain T42A in the same assay as above. Conditions: peptide library: pTyr-Var.
For KDKLPYPFDDP [GPX2_Y125_YF], the enrichment score was inactive: 0.583.
With KLPYLYDDPFS [GPX2_Y127_P126L] the enrichment score was inactive: 2.25.
With EFAAGYNVKFD [GPX4_Y123] the enrichment score was inactive: 0.533.
In the case of SVSVNYGDLVQ [GRAP_Y101_Q104L], the enrichment score is reported as inactive: 0.635.
For LFPANYVAPMT [GRAP2_Y324], the enrichment score was inactive: 1.14.
With FFPANYVAPMT [GRAP2_Y324_L319F] the enrichment score was inactive: 1.02.
YGMQLYQNYMH [GRB14_Y347] was tested, and the enrichment score was inactive: 2.24.
In the case of YGMQLYQKYMH [GRB14_Y347_N349K], the enrichment score is reported as inactive: 0.794.
With FGMQLYQKFMH [GRB14_Y347_N349K_YF] the enrichment score was inactive: 2.65.
With FGMQLYQNFMH [GRB14_Y347_YF] the enrichment score was inactive: 3.02.
EAIAKYDFKAT [GRB2_Y7] was tested, and the enrichment score was inactive: 0.758.
With EAIAKYDLKAT [GRB2_Y7_F9L] the enrichment score was inactive: 0.913.
For PLFSKYWPNHI [GREB1L_Y1560_R1558S_YF], the enrichment score was inactive: 0.729.
In the case of PLFRKYWPNHI [GREB1L_Y1560_YF], the enrichment score is reported as inactive: 0.588.
QRVLLYVQRET [GRHL3_Y518_R520Q] was tested, and the enrichment score was inactive: 1.74.
For EGNERYEGYCV [GRIA3_Y451], the enrichment score was inactive: 0.414.
In the case of EGNEQYEGYCV [GRIA3_Y451_R450Q], the enrichment score is reported as inactive: 0.482.
For EKMWSYTKSAE [GRIA3_Y705_M706T], the enrichment score was inactive: 0.709.

These binders were tested against SHP2 N-SH2 domain T52S in the same assay as above. Conditions: peptide library: pTyr-Var.
For KDKLPYPFDDP [GPX2_Y125_YF], the enrichment score was inactive: 0.91.
KLPYLYDDPFS [GPX2_Y127_P126L] was tested, and the enrichment score was inactive: 1.15.
With EFAAGYNVKFD [GPX4_Y123] the enrichment score was inactive: 0.738.
For SVSVNYGDLVQ [GRAP_Y101_Q104L], the enrichment score was inactive: 0.712.
LFPANYVAPMT [GRAP2_Y324] was tested, and the enrichment score was inactive: 1.04.
In the case of FFPANYVAPMT [GRAP2_Y324_L319F], the enrichment score is reported as inactive: 1.37.
With YGMQLYQNYMH [GRB14_Y347] the enrichment score was inactive: 2.47.
With YGMQLYQKYMH [GRB14_Y347_N349K] the enrichment score was inactive: 0.997.
In the case of FGMQLYQKFMH [GRB14_Y347_N349K_YF], the enrichment score is reported as inactive: 3.12.
For FGMQLYQNFMH [GRB14_Y347_YF], the enrichment score was inactive: 2.73.
For EAIAKYDFKAT [GRB2_Y7], the enrichment score was inactive: 0.659.
In the case of EAIAKYDLKAT [GRB2_Y7_F9L], the enrichment score is reported as inactive: 0.946.
With PLFSKYWPNHI [GREB1L_Y1560_R1558S_YF] the enrichment score was inactive: 0.928.
With PLFRKYWPNHI [GREB1L_Y1560_YF] the enrichment score was inactive: 0.619.
In the case of QRVLLYVQRET [GRHL3_Y518_R520Q], the enrichment score is reported as inactive: 1.82.
In the case of EGNERYEGYCV [GRIA3_Y451], the enrichment score is reported as inactive: 0.357.
In the case of EGNEQYEGYCV [GRIA3_Y451_R450Q], the enrichment score is reported as inactive: 0.397.
For EKMWSYTKSAE [GRIA3_Y705_M706T], the enrichment score was inactive: 0.899.

The binders below were run against SHP2 N-SH2 domain wild-type in the same assay as above. Conditions: peptide library: pTyr-Var.
For KDKLPYPFDDP [GPX2_Y125_YF], the enrichment score was inactive: 0.563.
With KLPYLYDDPFS [GPX2_Y127_P126L] the enrichment score was inactive: 1.18.
With EFAAGYNVKFD [GPX4_Y123] the enrichment score was inactive: 0.604.
For SVSVNYGDLVQ [GRAP_Y101_Q104L], the enrichment score was inactive: 0.59.
With LFPANYVAPMT [GRAP2_Y324] the enrichment score was inactive: 0.877.
For FFPANYVAPMT [GRAP2_Y324_L319F], the enrichment score was inactive: 1.05.
YGMQLYQNYMH [GRB14_Y347] was tested, and the enrichment score was inactive: 2.29.
With YGMQLYQKYMH [GRB14_Y347_N349K] the enrichment score was inactive: 0.911.
For FGMQLYQKFMH [GRB14_Y347_N349K_YF], the enrichment score was inactive: 2.95.
In the case of FGMQLYQNFMH [GRB14_Y347_YF], the enrichment score is reported as inactive: 2.84.
EAIAKYDFKAT [GRB2_Y7] was tested, and the enrichment score was inactive: 0.949.
EAIAKYDLKAT [GRB2_Y7_F9L] was tested, and the enrichment score was inactive: 1.06.
PLFSKYWPNHI [GREB1L_Y1560_R1558S_YF] was tested, and the enrichment score was inactive: 0.895.
For PLFRKYWPNHI [GREB1L_Y1560_YF], the enrichment score was inactive: 0.546.
For QRVLLYVQRET [GRHL3_Y518_R520Q], the enrichment score was inactive: 2.06.
For EGNERYEGYCV [GRIA3_Y451], the enrichment score was inactive: 0.666.
For EGNEQYEGYCV [GRIA3_Y451_R450Q], the enrichment score was inactive: 0.439.
In the case of EKMWSYTKSAE [GRIA3_Y705_M706T], the enrichment score is reported as inactive: 1.4.
